# Results from PubChem BioAssay AID686979 (National Center for Advancing Translational Sciences (NCATS), 2013).
# About 50,000 (12%) of roughly 420,000 compounds were called active. Inconclusive results, whose numbers are uncertain, are shown with a selection of clear calls. Calls come from the whole dose curve; as a rule, active = well fitted inhibition curve with a large enough effect; inconclusive = small, poorly fitted or top-dose-only effect; inactive = flat fitted curve, though single readings scatter. Potencies of inconclusive entries are left out as doubtful fits.
# Assay: qHTS for Inhibitors of human tyrosyl-DNA phosphodiesterase 1 (TDP1): qHTS in cells in presence of CPT; note: nearly all actives have a fitted effect of over 55% in size
# Details: chicken DT40 Tdp1-/-;hTDP1 cells + 20 nM CPT, ATP luminescence, 48 h; activity change, negative = growth inhibition: at 46.2 µM (top of the series)
# How it was run: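 Chicken DT40 Tdp1-/- cells complemented with human TDP1, 400 cells/well, exposed to compounds plus 20 nM camptothecin for at least 48 h at 37 C; viability read as ATP content by CellTiter-Glo luminescence.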
# % is set by controls: 0 for no effect and ±100 for the full control effect; potency is the fitted concentration of half-maximal effect; tags give direction and shape of the fitted curve.
SMILES,Potency,"activity change, negative = growth inhibition"
NC(=O)CC(NC(=O)c1cccc(Br)c1)c1ccc(NCC2CC2)c([N+](=O)[O-])c1 (stereo not given),"inconclusive [inhibitor, partial curve]",
CC1CCC(NC(=O)c2ccc(COc3ccccc3)o2)CC1 (stereo not given),"inconclusive [inhibitor, single point]",
Cc1ccc2cc(CN(Cc3ccco3)Cc3nnnn3Cc3ccco3)c(=O)[nH]c2c1,"inconclusive [inhibitor, single point]",
CN(C)C(=S)Nc1ccc([N+](=O)[O-])cc1,,inactive: -4.25%
CN(Cc1ccco1)S(=O)(=O)c1csc(C(N)=O)c1,,inactive: 5.98%
COc1ccc(-c2nc3ccccc3nc2-c2ccccc2)cc1,"inconclusive [inhibitor, single point]",
COc1cccc(NC(=O)CSc2nc(-c3ccccc3)nc3c2Cc2cc(Cl)ccc2O3)c1,,inactive: 10.1%
COc1ccccc1C(=O)NCCC(=O)N1CCN(c2ccccc2O)CC1,,inactive: -13.5%
Nc1ncnc2c1c(-c1ccc(Oc3ccccc3)cc1)cn2C1CCCC1,"inconclusive [inhibitor, partial curve, poor fit]",
COc1c(C)cc(C(=O)C2CCCN(C(=O)c3cccc(F)c3)C2)cc1C (stereo not given),,inconclusive: -33.1% [inhibitor]
CCC(=O)Oc1c(C(=O)CC)cc2c(C)cc(=O)oc2c1C,"inconclusive [inhibitor, single point]",
COc1ccc(-c2c(=O)n(OCc3ccccc3[N+](=O)[O-])c3ccccc3[n+]2[O-])c(OC)c1,"inconclusive [inhibitor, single point]",
Cc1cccc(COC(=O)C(Cc2ccccc2)NC(N)=O)c1 (stereo not given),"inconclusive [inhibitor, single point]",
O=S(=O)(c1ccccc1)c1nc(-c2ccc(F)cc2)oc1N1CCOCC1,"inconclusive [inhibitor, partial curve]",
CCOc1cc(C#N)c(NC(=O)c2ccc(OC)c(S(=O)(=O)N3CCCC3)c2)cc1OCC,"inconclusive [inhibitor, single point]",
Cc1ccc(-n2c(SCC(=O)N3CC(=O)Nc4ccccc43)nc3ccccc3c2=O)cc1,"inconclusive [inhibitor, single point]",
COc1ccccc1-c1cc(Nc2ccc(F)cc2)ncn1,"inconclusive [inhibitor, single point]",
CCN(CC)c1ccc(NC(=O)CSc2nc3ccccc3c(=O)n2-c2cc(S(=O)(=O)N(C)C)ccc2C)cc1,,inactive: -24.1%
Cc1ccc(NC(=S)Nc2cccc(S(=O)(=O)Nc3c(C)n(C)n(-c4ccccc4)c3=O)c2)cc1,,inactive: 9.22%
CCOC(=O)c1cccc(NC(=O)CC(c2ccc(F)cc2)N2Cc3ccccc3C2=O)c1 (stereo not given),"inconclusive [inhibitor, single point]",
O=C(CCl)N1c2ccccc2Oc2ccc3ccccc3c21,active: 5.17 µM,
CN(C[C@@H](CC1CCCCC1)N(C[C@H](Cc1ccccc1)N(CCc1ccccc1)N=O)N=O)N=O,active: 23.1 µM,
COc1ccccc1NC(=O)N(Cc1ccco1)C1CCN(C(C)=O)CC1,,inactive: -24.9%

SMILES,Potency,"activity change, negative = growth inhibition"
COc1ccc(C)cc1S(=O)(=O)N(CC(=O)Nc1ccc2c(c1)OCCO2)Cc1ccccc1,active: 10 µM,
CCCOc1ccc(OC(=O)c2sc3ncn(Cc4cccc(F)c4)c(=O)c3c2C)cc1,"inconclusive [inhibitor, partial curve]",
COc1ccccc1C(=O)COC(=O)CN1C(=O)C2CC=CCC2C1=O (stereo not given),,inactive: 12.7%
O=C(c1nc(-c2ccc(Cl)cc2)n2c1CCCCC2)N1CCN(c2ccc(F)cc2)CC1,active: 23.1 µM,
O=[N+]([O-])c1cccc(S(=O)(=O)NCc2ccncc2)c1,active: 2.31 µM,
O=C(Cc1cccs1)N(Cc1ccco1)C1(C(=O)NC2CCCCC2)CCCCC1,active: 14.6 µM,
Cc1ccc(-n2c(C)nnc2SCC(=O)NC2CCCC2)cc1,,inactive: -4.49%
CC(=O)Nc1cccc(NC(=O)CSc2ncc(C(=O)Nc3ccccc3)c(=O)n2C)c1,active: 5.8 µM,
CCCN(CC(=O)Nc1ccccc1OC)C(=O)CCC(=O)c1ccc(F)cc1,"inconclusive [inhibitor, single point]",
CCc1ccc(N2CC(C(=O)N3CCN(S(=O)(=O)c4cccc(F)c4)CC3)CC2=O)cc1 (stereo not given),"inconclusive [inhibitor, single point]",
CC(C)OC(=O)c1nn2c(C(F)(F)F)cc(-c3ccc(Br)o3)nc2c1Br,"inconclusive [inhibitor, partial curve]",
O=C(Nc1cccc(Cl)c1)c1cc(S(=O)(=O)N2CCOCC2)cs1,"inconclusive [inhibitor, partial curve]",
CCOC(=O)c1cccnc1SCC(=O)NCc1ccccc1,,inactive: 1.48%
CN(C(=O)c1cc2sccc2n1C)C1CCCCC1,"inconclusive [inhibitor, partial curve, poor fit]",
CC(=O)Oc1ccc2c3c(c(=O)oc2c1C)CCCC3,,inconclusive: -36.1% [inhibitor]
CC(=O)c1ccc(-c2nnc(CCC(=O)N(C)Cc3c(C)nc4ccccn34)o2)s1,"inconclusive [inhibitor, partial curve]",
CCn1c2ccccc2c2cc(NC(=O)COC(=O)c3cc(Cl)c(N)cc3OC)ccc21,"inconclusive [inhibitor, single point]",
CN(NC(=O)c1ccccc1F)c1ncccc1[N+](=O)[O-],,inactive: -8.64%
O=C(Nc1ccc(F)cc1)Nc1ccccc1N1CCCCC1,"inconclusive [inhibitor, single point]",
CCCC1S/C(=N/N=C/c2cccs2)NC1=O (stereo not given),"inconclusive [inhibitor, single point]",
CN(C(=O)c1cc2ccccc2oc1=O)C1(C)CCS(=O)(=O)C1 (stereo not given),,inactive: -0.217%
CCOC(=O)C1CCN(C(=O)COC(=O)C2CCN(S(=O)(=O)c3ccc4c(c3)OCCO4)CC2)CC1,,inactive: 7.75%
